± gives the standard deviation of the averaged measurements. Some of the results follow.

The subject of this test is PfAP2-G AP2 domain (GST-tagged). In words: gcPBM binding intensity (ln(normalized median fluorescence intensity)); higher = stronger DNA binding. An outline of the steps:
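An Agilent 4 × 180k array carrying primer-extended double-stranded 36-bp intergenic genomic probes and negative controls received GST-tagged P. falciparum DNA-binding domains expressed in E. coli, about 25 μg on average, for 1 h. The binding buffer contained 1× PBS, 1% milk, 0.2 mg/ml BSA, 0.5% salmon testes DNA and 0.03% Triton X-100. Binding intensity is the top Masliner-normalised natural-log median intensity across replicate spots of either probe orientation, read after Alexa488 anti-GST antibody staining and a 488 nm scan.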
For the sequence “AGAATAAAAAGGAACACACACACACCCATATATATA [CACACA_site3590]”, the “gcPBM binding intensity (ln)” value stood at 10.2 ± 0.25.
Then “ATGTACATTTTTTTCACACATACATTAATTTATGAG [CACACA_site5801]”, with 11.3 ± 0.87.
Then “TATCAATATTAAAAAGTGCAAAATAAAATATAAAAT [GTGCAC_site9486]”, with 10.1 ± 0.14; and “TATATTATATATTGGGGTACATATATATAAATATAA [XGTACX_site2296]”, with 11.4 ± 1.1; and “ACATACAAGAATTAAACACACACAAAATATAAATTC [CACACA_site8985]”, with 9.915 ± 0.049.
Then “TCTTGTATATACAGTAGTACTAAAAATTATTAAATA [XGTACX_site7896]”, with 11.2 ± 0.75.
For the sequence “TGTTTTTTGTTCTTTACAAAAAAAAAAAAAAAAAAA [GTGCAC_negctrl_site61]”, the “gcPBM binding intensity (ln)” value came to 9.62 ± 0.19.
Under “ATTATAATGGTAAAGTGTACAAATTTTTATTACACC [XGTACX_site5274]” stands 11.1 ± 0.61.
Under “ATAAATATAAAAATTTGTACATATATAGGTATAGGT [XGTACX_site1735]” stands 10.9 ± 0.43; under “TTATGTTGTAAATGCACACATACAAATACAGATACA [CACACA_site4876]”, 10.3 ± 0.17; under “GAAAACAAATATGTAGCACACATTCACATAATATAT [CACACA_site8731]”, 9.97 ± 0.014.
Then “TAATAAAAAAAGTGCACACACATAATATTTATATAT [CACACA_site7548]”, with 10.6 ± 0.53; and “CATTATTTACCGCCGTGTACGTAATGAGAAATTAAA [XGTACX_site4662]”, with 11.5 ± 0.99.
On to “TTATTTCAAATTAATTTACACACTTCATACTAAAAG [CACACA_site9039]”, for which the “gcPBM binding intensity (ln)” value was 10.1 ± 0.18.
Under “TATTTAATTACATGAACACACATTAGATATTTTTAA [CACACA_site7405]” stands 9.93 ± 0.14; under “TTTATTTATTATTAAAGTACTAAATTACATTATTAT [XGTACX_site6624]”, 10.7 ± 0.66; under “TATATAACATATGGGACACACATGCAACTGTTATAT [CACACA_site3792]”, 10.5 ± 0.35.
Under “TCGGTATCTGTTCAAAGTACACATTTGTATACAAAA [XGTACX_site1890]” stands 11.4 ± 0.93; under “ACACTATCTTAGATTTGTACATATTTATATATGTAT [XGTACX_site8739]”, 10.8 ± 0.39; under “AAAAATATTATGATGTTTATTAGAAAGGAAAAAACT [CACACA_negctrl_site1417]”, 9.885 ± 0.035.
Under “TTTTTATATTATTTAATGAGAAATAATTATAAACAA [CACACA_negctrl_site553]” stands 9.87 ± 0.26; under “ATGTGATGTTATATATGTACTTATTTTTTAATAAGG [XGTACX_site1786]”, 11.4 ± 0.88.
For the sequence “AAATGGGTTTATTTAACACACAAAAGAAAAAATATA [CACACA_site1938]”, the “gcPBM binding intensity (ln)” value came out at 10.04 ± 0.014.
Then “TATATATATTTATGTTGTACAAAATATTATTACGTA [XGTACX_site5384]”, with 10.9 ± 0.7.
Under “TTATATTATAACAAACGTACGAATTTTATACAAATA [XGTACX_site7258]” stands 10.8 ± 0.47; under “TGCTTATCCATTTCTACACACAAAAAAAAAAAAAAA [CACACA_site37]”, 10 ± 0.52; under “CACCCGCACGTATTTGCACACATTGCCACGTAATTA [CACACA_site5786]”, 10.6 ± 0.31.
In the case of “TATTTTTACAATGGTAGTACCATTTTGAATCTTTGT [XGTACX_site6092]”, the “gcPBM binding intensity (ln)” value was 11.2 ± 0.79.
Under “TTATATGTATGAACAAGTACATGCTATAATTATAAA [XGTACX_site1399]” stands 10.9 ± 0.71; under “TATATATATATATACACACATACATATATATATTTG [CACACA_site857]”, 10.1 ± 0.38.
Under “CGTAGCCCCACTAACACACACAAATATACTCAATCA [CACACA_site5587]” stands 10.1 ± 0.22; under “TTTTTTTTTTTTTGATGTACAATAATTAAAGAGTAA [XGTACX_site8403]”, 11.2 ± 1.1; under AATAACTATATATGTGTGCACAAAAATTTGACATAA, 10.7 ± 0.36.
For the sequence “AGTAGTCTGGAGAAGAGTACATAGTTTCTGGTAGCT [XGTACX_site2023]”, the “gcPBM binding intensity (ln)” value was determined as 11.2 ± 0.83.
Then “ATATATATATATATATGTACATATATACATATATGT [XGTACX_site1521]”, with 11.1 ± 0.61; and “ATATTTACCATTGTATGTACATATATAAAATATATC [XGTACX_site3237]”, with 11.1 ± 0.66.
Then “GTATATATATATATATGTACATATTTAGAGTTCTGT [XGTACX_site5357]”, with 11.2 ± 0.69; and “AAAACAAATGAGTACACACACATAAAAATTGAAAAT [CACACA_site199]”, with 11.5 ± 0.9.
Under “TAAAGAAAAAAATGTTGTACTTTATGAAACATATTT [XGTACX_site412]” stands 11.2 ± 0.79; under “AACATATACACGAACACACACACATATATATATATA [CACACA_site502]”, 10.3 ± 0.26; under “TTATAATATTGTGGTATACACACCTTACAAAAAGGT [CACACA_site2878]”, 10.5 ± 0.28.
Take “GGGAGAAATTTATACATACACACATATATATATTAT [CACACA_site4039]”: the “gcPBM binding intensity (ln)” value amounted to 9.955 ± 0.078.
Then “AAGAAAAACTTTACGTGTACCAAACATCCTGCCGAC [XGTACX_site4895]”, with 11 ± 0.52; and “TAAACCTTAAAATATTTCTCATGTTTAACTTATATT [GTGCAC_negctrl_site233]”, with 9.75 ± 0.057.

These data come from the supplement of paper PMC11417369.
